Source: article PMC10036327
No constants are given. Whether binding was seen depends on the method and setting. Binding seen in cells or lysates may run through a third protein. Some results given as binding are weak or reduced against the parent protein; the word gives no strength. For part of these data: Where a sequence is shown, tags or fusion partners need not be part of it.

T1: Smad4, endogenous in HaCaT cells (human (endogenous in HaCaT)), Q13485
T1 chain: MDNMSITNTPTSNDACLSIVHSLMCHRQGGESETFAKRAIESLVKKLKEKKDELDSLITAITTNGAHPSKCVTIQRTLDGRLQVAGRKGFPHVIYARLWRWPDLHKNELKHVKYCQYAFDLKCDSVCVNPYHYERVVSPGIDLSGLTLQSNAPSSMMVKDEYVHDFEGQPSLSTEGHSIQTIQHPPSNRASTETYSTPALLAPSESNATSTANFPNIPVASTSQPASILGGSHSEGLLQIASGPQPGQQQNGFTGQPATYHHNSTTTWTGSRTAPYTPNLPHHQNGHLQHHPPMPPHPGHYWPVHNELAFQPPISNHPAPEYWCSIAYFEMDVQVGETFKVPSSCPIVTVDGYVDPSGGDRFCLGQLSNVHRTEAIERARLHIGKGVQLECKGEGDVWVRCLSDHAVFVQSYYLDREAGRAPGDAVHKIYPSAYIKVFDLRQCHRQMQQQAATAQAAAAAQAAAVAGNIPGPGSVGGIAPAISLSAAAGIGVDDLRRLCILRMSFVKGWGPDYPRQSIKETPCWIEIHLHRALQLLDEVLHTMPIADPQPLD

T2: FLAG-Smad4, Q13485
T2 chain: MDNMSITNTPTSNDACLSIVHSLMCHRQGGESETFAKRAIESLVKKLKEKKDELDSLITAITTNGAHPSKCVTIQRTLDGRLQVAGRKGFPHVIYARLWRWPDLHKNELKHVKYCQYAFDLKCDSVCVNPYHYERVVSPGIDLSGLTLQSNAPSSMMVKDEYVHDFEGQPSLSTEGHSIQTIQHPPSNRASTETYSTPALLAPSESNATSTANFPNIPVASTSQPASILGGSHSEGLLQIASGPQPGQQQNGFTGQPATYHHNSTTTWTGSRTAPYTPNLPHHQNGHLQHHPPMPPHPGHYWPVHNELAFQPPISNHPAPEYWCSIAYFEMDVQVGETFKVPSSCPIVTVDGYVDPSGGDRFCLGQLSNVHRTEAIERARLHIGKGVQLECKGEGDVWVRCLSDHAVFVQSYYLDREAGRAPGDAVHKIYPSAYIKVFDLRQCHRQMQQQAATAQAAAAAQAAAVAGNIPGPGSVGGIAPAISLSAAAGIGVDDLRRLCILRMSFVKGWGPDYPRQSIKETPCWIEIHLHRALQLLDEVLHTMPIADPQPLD


Columns and labels:
[1] = molecular target: T1, Smad4, endogenous in HaCaT cells (human …); experiment: co-IP; endogenous proteins, HaCaT cells with or without stable expression of ABL1, treated with TGF-β or SB431542; IP-western blotting; settings: remark: other sources report otherwise
FLAG-Smad4, Q13485 = molecular target: T2, FLAG-Smad4, Q13485; experiment: co-IP; HEK293T cells transiently transfected with tagged expression plasmids; lysates incubated with primary antibody (anti-FLAG as in Fig. 3a) and protein A Sepharose at 4 °C for 4 h; western blotting; in Fig. 5g with co-expressed FLAG-ABL1 or FLAG-ABL1-KD; settings: remark: other sources report otherwise

Row | binding [1] | binding (FLAG-Smad4, Q13485) | Binder
1 | binds |  | Smad3 in HaCaT cells, P84022 1-425 (protein) MSSILPFTPPIVKRLLGWKKGEQNGQEEKWCEKAVKSLVKKLKKTGQLDELEKAITTQNVNTKCITIPRSLDGRLQVSHRKGLPHVIYCRLWRWPDLHSHHELRAMELCEFAFNMKKDEVCVNPYHYQRVETPVLPPVLVPRHTEIPAEFPPLDDYSHSIPENTNFPAGIEPQSNIPETPPPGYLSEDGETSDHQMNHSMDAGSPNLSPNPMSPAHNNLDLQPVTYCEPAFWCSISYYELNQRVGETFHASQPSMTVDGFTDPSNSERFCLGLLSNVNRNAAVELTRRHIGRGVRLYYIGGEVFAECLSDSAIFVQSPNCNQRYGWHPATVCKIPPGCNLKIFNNQEFAALLAQSVNQGFEAVYQLTRMCTIRMSFVKGWGAEYRRQTVTSTPCWIELHLNGPLQWLDKVLTQMGSPSIRCSSVS
2 |  | binds | HA-Smad3, P84022 1-425 (protein) MSSILPFTPPIVKRLLGWKKGEQNGQEEKWCEKAVKSLVKKLKKTGQLDELEKAITTQNVNTKCITIPRSLDGRLQVSHRKGLPHVIYCRLWRWPDLHSHHELRAMELCEFAFNMKKDEVCVNPYHYQRVETPVLPPVLVPRHTEIPAEFPPLDDYSHSIPENTNFPAGIEPQSNIPETPPPGYLSEDGETSDHQMNHSMDAGSPNLSPNPMSPAHNNLDLQPVTYCEPAFWCSISYYELNQRVGETFHASQPSMTVDGFTDPSNSERFCLGLLSNVNRNAAVELTRRHIGRGVRLYYIGGEVFAECLSDSAIFVQSPNCNQRYGWHPATVCKIPPGCNLKIFNNQEFAALLAQSVNQGFEAVYQLTRMCTIRMSFVKGWGAEYRRQTVTSTPCWIELHLNGPLQWLDKVLTQMGSPSIRCSSVS
3 |  | binds | HA-Smad2, Q15796 1-467 (protein) MSSILPFTPPVVKRLLGWKKSAGGSGGAGGGEQNGQEEKWCEKAVKSLVKKLKKTGRLDELEKAITTQNCNTKCVTIPSTCSEIWGLSTPNTIDQWDTTGLYSFSEQTRSLDGRLQVSHRKGLPHVIYCRLWRWPDLHSHHELKAIENCEYAFNLKKDEVCVNPYHYQRVETPVLPPVLVPRHTEILTELPPLDDYTHSIPENTNFPAGIEPQSNYIPETPPPGYISEDGETSDQQLNQSMDTGSPAELSPTTLSPVNHSLDLQPVTYSEPAFWCSIAYYELNQRVGETFHASQPSLTVDGFTDPSNSERFCLGLLSNVNRNATVEMTRRHIGRGVRLYYIGGEVFAECLSDSAIFVQSPNCNQRYGWHPATVCKIPPGCNLKIFNNQEFAALLAQSVNQGFEAVYQLTRMCTIRMSFVKGWGAEYRRQTVTSTPCWIELHLNGPLQWLDKVLTQMGSPSVRCSSMS
